# Test results as given in PubChem BioAssay (Tox21).
# This list was built around the results that the source calls inconclusive (neither active nor inactive); the mix of calls is not that of the screen. For some assays here: Potencies of inconclusive entries are left out as doubtful fits. Calls of active or inactive are those of the source. Calls follow the shape of the dose curve; as a rule, active = well fitted curve in the direction sought with a large enough effect in the repeat runs; inconclusive = weak or mixed curves; inactive = no such curve, though single readings can be large; an effect the other way counts as inactive or inconclusive.
# Tests used:
# [1] = qHTS RealTime-Glo MT Cell Viability Assay in HepG2 cells - 40 hour (AID 1224870); also: nearly all actives have a fitted effect of over 50% in size; as to activity change, negative = cytotoxic: % is scaled to controls: 0 for no effect and ±100 for the full control effect
# Summary of the method: (§1)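 Real-time viability: cells seeded at 600 per well together with NanoLuc and cell-permeant prosubstrate, compounds added after 5 h incubation. Luminescence tracked at 0, 8, 16, 24, 32 and 40 h of exposure.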
# [2] = qHTS RealTime-Glo MT Cell Viability Assay in HEK293 cells - 16 hour (AID 1224872); also: nearly all actives have a fitted effect of over 50% in size
# Summary of the method: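 Assay medium contained NanoLuc luciferase plus cell-permeant prosubstrate, added with HEK293 cells at 600 cells/well. After 5 h at 37 C/5% CO2 compounds were added; plates stayed at 37 C for 40 h with serial luminescence reads.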
# [3] = A CellTox Green Cytotoxicity Assay to monitor cytotoxicity in HepG2 cells - 24 hour (AID 1224878); also: nearly all actives have a fitted effect of over 45% in size; as to Cytotoxicity: % is scaled to controls: 0 for no effect and ±100 for the full control effect
# Summary of the method: (§2)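 Cytotoxicity was tracked as dead-cell DNA fluorescence in HepG2 cells treated with test compounds at 37 C; each time-point value comes from one kinetic series spanning 0, 8, 16, 24, 32 and 40 h.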
# [4] = qHTS RealTime-Glo MT Cell Viability Assay in HEK293 cells - 40 hour (AID 1224874); conditions: RealTime-Glo luminescence; max response: active compounds read low; also: nearly all actives have a fitted effect of over 50% in size
# Summary of the method: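 Kinetic, non-lysing viability readout. Seed HEK293 (600/well) with reagent, incubate 5 h at 37 C/5% CO2, pin 23 nL compound in DMSO, incubate at 37 C, read luminescence at 0, 8, 16, 24, 32, 40 h.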
# [5] = qHTS RealTime-Glo MT Cell Viability Assay in HepG2 cells - 32 hour (AID 1224877); also: nearly all actives have a fitted effect of over 55% in size
# Summary of the method: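 qHTS, HepG2, 600 cells/well, RealTime-Glo (NanoLuc + prosubstrate) added with cells; 5 h preincubation; DMSO compound addition; 37 C; luminescence at 0/8/16/24/32/40 h.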
# [6] = A CellTox Green Cytotoxicity Assay to monitor cytotoxicity in HepG2 cells - 40 hour (AID 1224879); also: nearly all actives have a fitted effect of over 40% in size
# Summary of the method: as §2
# [7] = A CellTox Green Cytotoxicity Assay to monitor cytotoxicity in HEK293 cells - 40 hour (AID 1224871); also: nearly all actives have a fitted effect of over 45% in size
# Summary of the method: (§3)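 Real-time, in one plate: 600 HEK293 cells/well with dead-cell DNA dye, pinned compound after 5 h, 37 C incubation over 40 h; viable cells give no appreciable fluorescence.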
# [8] = A CellTox Green Cytotoxicity Assay to monitor cytotoxicity in HEK293 cells - 24 hour (AID 1224875); also: nearly all actives have a fitted effect of over 45% in size
# Summary of the method: as §3
# [9] = qHTS RealTime-Glo MT Cell Viability Assay in HepG2 cells - 8 hour (AID 1224873); also: nearly all actives have a fitted effect of over 55% in size
# Summary of the method: as §1
# [10] = A CellTox Green Cytotoxicity Assay to monitor cytotoxicity in HepG2 cells - 16 hour (AID 1224876); also: nearly all actives have a fitted effect of over 45% in size
# Summary of the method: as §2
# Potency is read from the fitted curve at half-maximal effect; tags tell the direction and shape of the fitted curve.
smiles,measurement,setting,value
NC[C@H]1O[C@H](O[C@H]2[C@H](O)[C@@H](O[C@H]3O[C@H](CO)[C@@H](O)[C@H](N)[C@H]3O)[C@H](N)C[C@@H]2N)[C@H](O)[C@@H](O)[C@@H]1O,"activity change, negative = cytotoxic",[1],inactive: -6.23% [at 6.97 µM]
O=C(/C=C/c1ccc(O)c(O)c1)O[C@@H]1C[C@](O)(C(=O)O)C[C@@H](O)[C@H]1O,Potency,[1],"inconclusive [rising, partial curve, poor fit]"
N#CCCOCCC#N,Potency,[1],"inconclusive [rising, partial curve, poor fit]"
CCOC(=O)c1ccc(C)cc1,Potency,[1],inactive
same,Potency,[2],inactive
same,Potency,[3],inactive
OCc1ccccc1,Potency,[1],inactive
Cc1oc2c(NC(=O)c3c(Cl)cccc3Cl)cccc2c1C(C)(C)O,Potency,[1],"inconclusive [falling, partial curve, poor fit]"
same,Potency,[2],"inconclusive [cytotoxic, partial curve, poor fit]"
same,Potency,[4],"inconclusive [cytotoxic, partial curve]"
same,Potency,[5],"inconclusive [cytotoxic, partial curve, poor fit]"
CC(=O)OCC(=O)[C@@]12N=C(C)O[C@@H]1C[C@H]1[C@@H]3CCC4=CC(=O)C=C[C@]4(C)[C@H]3[C@@H](O)C[C@@]12C,Potency,[1],inactive
CC(=O)O[C@H]1C[C@@H]2CC[C@@]1(C)C2(C)C,Potency,[1],inactive
CC[C@]12CCCN3CCc4c(n(c5ccccc45)C(=O)C1)[C@@H]32,Potency,[1],inactive
same,Potency,[2],"inconclusive [cytotoxic, partial curve]"
O=C(O)c1cc(N=Nc2ccc(S(=O)(=O)Nc3ccccn3)cc2)ccc1O,Potency,[1],"inconclusive [falling, partial curve, poor fit]"
CC1CC(O)CC(C)(C)C1 (stereo not given),Potency,[1],inactive
CC(C)C[C@H](NC(=O)[C@H](Cc1ccccc1)NC(=O)c1cnccn1)B(O)O,Potency,[1],active: 0.0213 µM
same,Potency,[2],"inconclusive [cytotoxic, full curve]"
same,Potency,[5],active: 0.0301 µM
same,Potency,[6],active: 0.0151 µM
COC(=O)c1ccc(NC(C)=O)cc1OC,Potency,[1],inactive
CN(C)C(=O)C(CCN1CCC(O)(c2ccc(Cl)cc2)CC1)(c1ccccc1)c1ccccc1,Potency,[1],active: 23.9 µM
same,Potency,[7],active: 26.8 µM
same,Potency,[2],active: 8.49 µM
same,Potency,[8],"inconclusive [activator, single point]"
same,Potency,[5],"inconclusive [cytotoxic, single point]"
same,Potency,[6],active: 23.9 µM
CCN(CC)CCOc1ccc2c(c1)C(=O)c1cc(OCCN(CC)CC)ccc1-2,Potency,[1],"inconclusive [falling, single point]"
same,Potency,[7],"inconclusive [activator, single point]"
same,Potency,[2],"inconclusive [cytotoxic, full curve]"
same,Potency,[4],active: 15.1 µM
same,Potency,[5],"inconclusive [cytotoxic, single point]"
same,Potency,[3],"inconclusive [activator, single point]"
O=[N+]([O-])c1cc[n+]([O-])cc1,Potency,[1],"inconclusive [falling, partial curve, poor fit]"
same,Potency,[5],"inconclusive [cytotoxic, partial curve, poor fit]"
CCNc1nc(NC(C)(C)C)nc(OC)n1,Potency,[1],inactive
same,Potency,[4],"inconclusive [cytotoxic, single point]"
CCOC(=O)[C@@H](C)Oc1ccc(Oc2nc3ccc(Cl)cc3o2)cc1,Potency,[1],"inconclusive [falling, partial curve]"
same,Potency,[9],active: 7.76 µM
same,Potency,[5],"inconclusive [cytotoxic, partial curve]"
CNCCCC1c2ccccc2C=Cc2ccccc21,Potency,[1],"inconclusive [falling, single point]"
same,Potency,[8],"inconclusive [activator, single point]"
same,Potency,[10],active: 23.9 µM
same,Potency,[3],active: 23.9 µM
CCc1cccc(N(C)C(N)=Nc2cccc3ccccc23)c1,Potency,[1],inactive
same,Potency,[4],"inconclusive [cytotoxic, partial curve]"
same,Potency,[3],"inconclusive [activator, single point]"
same,Potency,[6],"inconclusive [activator, partial curve, poor fit]"
OC(C#CCN1CCCC1)(c1ccccc1)c1ccccc1,Potency,[7],inactive
